Data: the RNAGym collection of RNA variant scans (doi:10.7554/elife.90254)
The source gives no read counts; variants with many changes may rest on few reads.

B1: LINE1-mini (parent)
chain: GGCAGAGCUCAACACAGCGUGGCAAAGUGGCUGUGGCUAGACUGCC

Variants of: B1
Assay: self-cleavage, relative activity (ratio to wild type); higher = more cleavage; in vitro, sequencing; the parent is a self-cleaving ribozyme

Row | Variant | self-cleavage
1 | CGCUGAGCUCAACACAGUGUGUCAAAGUGGCUGUGGCUAGACUGCC | 0.14
2 | CGCAGUGCUCAACAUAGCGUGGCAAAGUGGCUGUGGCUAGACUGCC | 0.1
3 | CGCAGAGCUGAACACAGCGUGGCAAAGUGGCUGUGGCUGGACUGCC | 0
4 | AGCAGAGCUCAACACAGCGGUGCAAAGUGGCUGUGGCUAGACUGCC | 0.45
5 | CGCAGAGAUCGACACAGCGUGGCAAAGUGGCUGUGGCUAUACUGCC | 0
6 | CGCAGCGCUCAACACAGCGUGGCAAAGUGGCUGCGCCUAGACUGGC | 0
7 | CGCUGAGGUCAACACAGCGUGGCAAAGUGGCUGUGGCUAGACUGCU | 0.02
8 | CGCAGAGCUCAACGCAGCGUGGCAAAGUGGCUGUGGCUAGACUGAC | 0.01
9 | CGCUGAGCUCAACACACCGUUGCAAAGUGGGUGUGGCUAGACUGCC | 0.01
10 | CGCAGAGUUCAACAGAGCGUGGCAAAGUGGCUGCGGCUAGACUACC | 0.2
11 | CGUAGAGCUCAACACAGCGUGGCAAAGUGGCUGUGGCUACACUGCC | 0.03
12 | CGUACAGCUCAACACAGCGUGGCAAAGUGGCUGUGGCUAGACUGCC | 0.07
13 | CGCGGAGCUCAACACAGCGCGGCUAAGUGGCUGAGGAUAGACUGCC | 0.01
14 | CGCAGAGCUCAACACAGCGUGGCACAGUGGCUUUCGCUAGACUGCC | 0.02
15 | CGCAGAGCUAAACACAGCGUGGCAAAGUGGCUGUCGCUAGACUGCC | 0
16 | CGCAGAGCUCAACACCGCGGGGAAAAGUGGCCGUGGCCAGACUGCG | 0
17 | CGCAGAGCUCAACGCAGCAUGGCAAAGUGGCUGUGGCUGGACUGCC | 0
18 | CGCAGUGCUCAACACAGCGUGGCAAAGUGGCUGUGGCUAGACUUCC | 0.06
19 | CGCAGAGCUCAACACCGCGUCGCACAGUGGCUGUGGCUAGACUGCC | 0.01

Row | Variant | self-cleavage
20 | CGCAGAGCUCAACGUAGCGUGGCAGAGUGGCUGUGGCUAGACUCCC | 0.01
21 | CGCCGAGCUCAACACAGCGUGGCAAAGUGGCGGUGGCUAGACUGCC | 0.05
22 | CGCAGAGUUCAACACAGGGUGGCAAAGUGGCUGUGGCUAGAAUGCC | 0
23 | CGCAGAGCUCAUCACAGCGAGGCAAAGUGGCUGUGGCUAGACUGCC | 0.04
24 | CGCCGAGCUCAACACAGCGUGACAAAGUGGCUGUGGCUAGACUGCC | 0.03
25 | CGCAGGGCUCAAUACAGCGUGGCAAAGUGGCUGUGGCUAGACUGCC | 0.08
26 | CGCAGGGCUCAAGACAGCGUGGCAAAGUGGCUGUGGCUAGACUGCC | 0.1
27 | CGCAGAGAUCAUCACAGAGUUGCAAAGUGGCUGUGGCUAGCCUGCC | 0.02
28 | CGUAGAGCUCAACACAGCGUGGCAAAGUGGCUGUGGUUAGACUGCC | 0.2
29 | CGCAGAGCUCAGCACAGCGUGUCAAAGUGGCUGUGGCUAGACUGCC | 0
30 | CGCAGAGCUCAUCACAGUGUGGCAAAGCGGCAGUGGUUACACUGCC | 0
31 | CGCAGAGCUAAACACAGCAUGUCAAAGUGGCUGUGGCUAGACUGCC | 0.01
32 | CGGAGACCUAAACACAGCGUGGCAAAGUGGCUGUGGCUGGACUGCC | 0.02
33 | CGCAGAGCUCAACACAGCGUGGCAGAGUGGCUAUGGCUAGACUGCC | 0.01
34 | CGCAGAGCUCAACACGGCGUGGUAAAGUGACUGUGGCUAGACUGCC | 0.03
35 | CGCAGAGCUAAAUACAGCGUGGCAAAGUGACUGUGGCUAGACUGCC | 0.02
36 | CGCAGAGCUAAACUCAGCGUGGAAAAGUGGCUGUGGCUAGACUGCC | 0
37 | CGCAGAGGUCAACACAGAGUGGCAAAGUGGCUGUGGCUACCCUGCC | 0.02
38 | CGCCGUGCUCAACACAGCGUGUUAAAGUGGCUGUGGCUAGACUGAC | 0.02

Row | Variant | self-cleavage
39 | CGCUGAGCUCAACACAGCCUGGCAAAGUGCUUGUGGCUAGACUGCC | 0.02
40 | CGCAGAGCUAAACACAGCGUGGCAAAGUGGCUGUGGGUAGACUGCC | 0.01
41 | CGCAGAGCUCACCACAGCGUGGCAAAGUGGCUGGGGCUAUACUGGC | 0.01
42 | CGCAGAGCUCAACACUACGUGGCAAAGUGGCUGUGGCUAGACUGCC | 0.02
43 | CGCGGAGCUCAACACAGCGUGGCAAAGUGGCUGUGGCUGGACUGCC | 0.02
44 | CGCGGAGCUCAACACAGCGUGGCAAAGUGGUUGUGGCUAGACUGCC | 0.02
45 | CGUAGAGCUCAACUCAGCGUGGCAAAGUGGCUGUGGCUAGACUGCC | 0.1
46 | CGCAGAGCUCACAACAGCGUGGCAAAGUGGCUGUGGCUGGACUUCC | 0.01
47 | CGCAGUGCUCAAUACAGCGUGGCAAAGUCACUGUGGCUAGACUGCC | 0.02
48 | CGGAGAGCUCAACACAGCGUGGCACAGCGGCUGUGGCUAGACUGCC | 0.09
49 | CGCAGAGAUCAACACACUGUGGCAAAGUGGCUAUGGCAACACGGCC | 0.01
50 | CGCAGAGCUGUACACAGCGUGGCAAAGUGGCUGUGGCUAGACUGCA | 0.02
51 | CGCAGAGCUCAACGGAGCGUGGCAAAGUGGCUGUGGCUAGACUGCC | 0
52 | CGCAGAGCUUAACACAGCGUGGCACAAUGGCUGUGGCUAGUCUGAC | 0.01
53 | CGCAGGGCUCAACACAGCGUGGCAAAGUGGCUGUGACUAGACUUCC | 0.03
54 | CGCAGAGCUCAACACUGCGUGGCAAAGUGGCUGUGGAUAGACUGCC | 0.02
55 | CGUAGAGCUCAACACAGCGUGGCAAAGUGGCAGUGGCUAGACUGCC | 0.04
56 | CGUAGAGCUCCACACAGCGUGGCAAAGUGGCUGCGGCUAGACUGCC | 0.02
